PubChem BioAssay AID588382 (National Center for Advancing Translational Sciences (NCATS), 2011)
Hit rate of the full screen: of about 1,300 compounds, about 150 (12%) were called active. Another 30% or so got no clear call; they are omitted. The call rests on the fitted dose curve; in most records, active means well fitted cell-killing curve with a large enough effect; inconclusive means small, poorly fitted or top-dose-only effect, or effect the other way; inactive means flat fitted curve, though single readings scatter. The entries are a selection whose mix differs from that of the whole data set.

Assay: qHTS of small molecules that selectively kill Giardia lamblia: Hit Validation in HepG2 cytotox;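 further: compound exposure lasted overnight at 37 deg C; nearly all actives have a fitted effect of over 55% in size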;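 on activity change, negative = cytotoxicity: viability measured as cellular ATP by ATPLite luminescence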
Conditions: cell viability; Potency: HepG2 cytotoxicity; series mostly up to 38.3 µM; activity change, negative = cytotoxicity: at the top concentration
From the text: Giardia lamblia is a human pathogen afflicting impoverished nations, and the most common cause of outbreaks of diarrhea in the United States. Giardia has been classified by the CDC as a category B bioterrorism organism. The favored anti giardiasis drugs in the US are metronidazole or tinidazole, compounds that have undesirable side effects. Moreover, increasing resistance to drug regimes and recurrence are a concern. It is thus clear that alternative drug treatments are needed.
In a collaboration between the University of Maryland, College Park and the NIH Chemical Genomics Center, a bioluminescence Giardia viability assay based on the trophozoites' ATP content was developed. This assay is suitable for high throughput screening, and miniaturized the assay for compound screening in 1536-well plates. The goal of the project is to screen the Molecular Libraries Small Molecule Repository (MLSMR) for compounds that selectively kill Giardia trophozoites. This counterscreen looks at the toxicity of the compounds against the human HepG2 cell line.
NIH Chemical Genomics Center [NCGC]
NIH Molecular Libraries Probe Centers Network [MLPCN]
Assay Submitter (PI): Osnat Herzberg, University of Maryland, College Park, MD.
4 uL of HepG2 cells ae dispensed into white 1536-well plates. They are incubated overnight at 37 deg C and then 23 nL of compounds are transferred to the wells with a pintool. Plates are incubated overnight at 37 deg C. 2 uL of ATPLite is added and the plates are incubated for 15 min at room temperature before they are read on the ViewLux for luminiescence.
On the % scale 0 is the no-effect control and ±100 the full control effect; potency means the concentration at half of the fitted maximal effect.

Structure (SMILES)	activity change, negative = cytotoxicity	Potency
O=C1CC(SC(=Nc2ccccc2)Nc2ccccc2)C(=O)N1c1cccc2ccccc12 (stereo not drawn)	inactive: 15%	
CCc1nn2c(=O)c(S(=O)(=O)Nc3ccc(Cl)cc3)c(C)nc2s1	inactive: 8.24%	
N/C(=N\c1nc2ccccc2o1)NC(=O)C(Cc1ccccc1)N1C(=O)c2ccccc2C1=O (stereo not drawn)	inactive: 7.34%	
Cc1ccc(OCC(=O)c2cc(C)n(Cc3cccs3)c2C)c([N+](=O)[O-])n1	inactive: -1.65%	
CC(C)(C)c1cc(C(=O)N/N=C/c2ccncc2)n[nH]1	inactive: 8.9%	
C[C@@H]1[C@H]2[C@@H](O[C@@H]3O[C@H](CO)[C@@H](O)[C@H](O)[C@H]3O)OC=C(C(=O)O)[C@H]2C[C@@H]1O	inactive: 20.3%	
O=C(CCN=C1NS(=O)(=O)c2ccccc21)OCC(=O)c1ccc(F)c(F)c1	inactive: 3.31%	
O=c1cccc(-c2ccccc2)[nH]1	inactive: 6.98%	
O=C1NC(=S)S/C1=C\C=C\c1ccc([N+](=O)[O-])o1		active: 3290 nM
CC(=O)NC(Cc1cccc(C)c1)C(=O)NC1CCN(c2ncccc2[N+](=O)[O-])CC1 (stereo not drawn)	inactive: 1.07%	
Cc1ccc([N+](=O)[O-])cc1NC(=O)C1CCN(S(C)(=O)=O)CC1	inactive: 20.3%	
CCn1cc(-c2cc(C(=O)O)c3ccccc3n2)cn1		active: 2070 nM
CCOC(=O)C1CCN(c2ccc([N+](=O)[O-])c(C(C)=O)c2)CC1	inactive: 16.6%	
COc1ccc(OC)c2c(C)c(C)[nH]c12	inactive: 13.6%	
Cc1cc(C2=NNC(=NC3CC3)SC2)c(C)n1-c1ccccc1F		active: 927 nM
S=c1[nH]nc2ccccn12	inactive: 10.4%	
Cc1onc(-c2ccccc2)c1NC(=O)N(Cc1ccccc1)C(C)C	inactive: 2.45%	
O=C(COC(=O)c1cc(Cl)ccc1O)NC(=O)NCc1ccccc1	inactive: 19.2%	
CCCCc1cc(=O)oc2c(C)c(OCC(=O)NCc3ccccn3)ccc12	inactive: 22.9%	
COc1ccc(-c2ccc([C@H]3[C@@H]4C=CCC[C@@]4(C)C(=O)N3Cc3ccccc3)c(F)c2)cc1OC	inactive: -18.1%	
O=C(Nc1ccc(O)c2c(=O)cc(-c3ccccc3Cl)oc12)c1ccc(F)cc1	inactive: 5.41%	

Structure (SMILES)	activity change, negative = cytotoxicity	Potency
O=C(Cc1ccc(Cl)cc1)Nc1ncc([N+](=O)[O-])s1	inactive: -20.5%	
C=CCNc1ncnc2sc(SC)nc12	inactive: 12.9%	
Cc1ccc(-c2ccc(/C=N/N3C(=O)C4C5C=CC(CC5)C4C3=O)o2)c([N+](=O)[O-])c1 (stereo not drawn)	inactive: 25.7%	
O=C(Nc1ncc([N+](=O)[O-])s1)c1cccc([N+](=O)[O-])c1		active: 3290 nM
COCc1ccc(C(=O)N2CCCC(C(=O)c3ccc(Cl)cc3C)C2)o1 (stereo not drawn)	inactive: 12.9%	
O=C(CSc1ccsc1[N+](=O)[O-])NCc1ccccc1	inactive: 23.3%	
O=c1sc(N2CCN(c3ccc(F)cc3)CC2)nc2ccsc12	inactive: 21.6%	
CCN(CC)CCCC(C)Nc1cc(/C=C/c2ccccc2Cl)nc2cc(Cl)ccc12 (stereo not drawn)		active: 2070 nM
N#Cc1ccc(-c2c(-c3ccccc3)ncc3cc(F)ccc23)cc1	inactive: -5.65%	
COc1ccc2cc(-c3cc(C(=O)OCC(=O)Nc4c(C)n(C)n(-c5ccccc5)c4=O)c4ccccc4n3)ccc2c1		active: 464 nM
O=C(COc1cccnc1[N+](=O)[O-])NCCc1ccc(Cl)cc1	inactive: 2.14%	
COc1cc(C(=S)N2CCOCC2)ccc1OC(=O)/C=C/c1ccco1	inactive: 12.5%	
O=C(NCCO)c1ccc2c3n(nc2c1)-c1ccccc1CO3		active: 2930 nM
COC(=O)[C@]1(C)N[C@H](CN(C)S(=O)(=O)c2ccc(-c3ccccc3)cc2)[C@@H]2C(=O)N(Cc3ccccc3)C(=O)[C@@H]21	inactive: 18.3%	
COc1ccc(Cc2nnc(NC(=O)Nc3ccccc3F)s2)cc1OC	inactive: 12.6%	
COc1ccc(-n2nc([N+](=O)[O-])c(=NCCc3ccc(C)cc3)n2O)cc1	inactive: 0.151%	
O=C(COc1ccccc1)N=C1SC2CS(=O)(=O)CC2N1c1ccccc1F (stereo not drawn)	inactive: 1.52%	
O=C(c1cc(Cl)ccc1Cl)N1CCN(Cc2ccccc2)CC1	inactive: 6.29%	
CC(=O)c1c(C)n([O-])c2cc(F)c(F)cc2[n+]1=O	inactive: -4.47%	
O=C(Nc1nnc(SCC(=O)N2CCOCC2)s1)c1ccccc1Cl		active: 2070 nM
CC(=O)c1sc(NC(=O)c2ccc(C)c(C)c2)nc1C	inactive: -14.5%	

Structure (SMILES)	activity change, negative = cytotoxicity	Potency
Cc1ccc(S(=O)(=O)N2[C@@H](c3ccc(F)cc3)C(C(=O)O)=CC[C@H]2c2ccc(Cl)cc2)cc1	inactive: 2.24%	
O=C(Cn1cnc2c(OCc3ccccc3)ncnc21)NCCCc1ccccc1	inactive: 8.11%	
CC(=O)Nc1nc(-c2cc([N+](=O)[O-])cs2)cs1	inactive: 1.82%	
CCCNC(=O)Cn1c(=O)n(C)c2ccccc21	inactive: 7.3%	
OCCOCCNc1ncnc2c1c(-c1ccccc1)cn2-c1ccccc1	inactive: 1.82%	
Cc1[nH]n(C2=NCCS2)c(=O)c1N=Nc1cccc(C(F)(F)F)c1		active: 4650 nM
CN(C(=O)c1ccc(NC(=O)Cc2ccc(NC(=O)C3CCCN(S(=O)(=O)c4cccc([N+](=O)[O-])c4)C3)cc2)cc1)C1CCCC1 (stereo not drawn)	inactive: 6.63%	
Cc1ccc(S(=O)(=O)N2[C@@H](c3ccc(F)cc3)C(C(=O)O)=CC[C@H]2c2ccc3c(c2)OCO3)cc1	inactive: 11.6%	
COc1ccc(CCNc2oc(COc3ccc(Br)cc3)nc2C#N)cc1OC	inactive: 1.26%	
CCOC(=O)c1c(NC(=O)CS(=O)(=O)c2cn(CC)c3ccccc23)sc2c1CCCCC2	inactive: 1.24%	
COc1ccc(-c2nc(CSCC(=O)NC3CCCC3)c(C)o2)cc1OC	inactive: 11.8%	
O=[N+]([O-])c1ccc(N2CCN(CCO)CC2)c2ncccc12	inactive: 3.63%	
COc1ccccc1-n1cc2c([N+](=O)[O-])cc([N+](=O)[O-])cc2n1	inactive: 11.2%	
CC(C)C[C@H](NC(=O)c1[nH]cnc1C(=O)N[C@H](C)c1ccccc1)C(=O)OCc1ccccc1	inactive: 1.68%	
CC(=O)Nc1ccc(/C=C/c2noc(-c3ccccc3O)n2)cc1	inactive: 0.21%	
CC1(C)Oc2ccc3ccc(=O)oc3c2C(/C=N/O)C1=O (stereo not drawn)	inactive: 16.5%	
CSc1cccc(NS(=O)(=O)c2cn(C)cn2)c1	inactive: -0.564%	
CC(=O)NCCNC(=O)c1ccc(CSc2ccc(Cl)cc2)cc1	inactive: 11.1%	
CC(C)Cn1c(=S)[nH]c2cc(C(=O)NCc3ccccc3F)ccc2c1=O	inactive: -0.596%	
COc1cc2sc(-c3ccccc3OC)c(-c3ccc(O)cc3)c2cc1OC	inactive: -0.122%	
c1ccc(CCNc2ncnc3nc[nH]c23)cc1	inactive: 10.5%	
